In the supplement of paper PMC3334620:
Over roughly 33,000 sequences, “E-score (-0.5 to 0.5)” has its median near -0.017; the highest 2% begin near 0.3. Some of the results follow.

biological target: T1, Sut1 (UniProt P53032); experiment: PBM E-score (8-mer binding enrichment) (E-score (-0.5 to 0.5)); higher = stronger / more preferred TF binding; most listed sequences are background and not binding sites; conditions: protein concentration: 200 nM; construct: GST-full length
T1 sequence: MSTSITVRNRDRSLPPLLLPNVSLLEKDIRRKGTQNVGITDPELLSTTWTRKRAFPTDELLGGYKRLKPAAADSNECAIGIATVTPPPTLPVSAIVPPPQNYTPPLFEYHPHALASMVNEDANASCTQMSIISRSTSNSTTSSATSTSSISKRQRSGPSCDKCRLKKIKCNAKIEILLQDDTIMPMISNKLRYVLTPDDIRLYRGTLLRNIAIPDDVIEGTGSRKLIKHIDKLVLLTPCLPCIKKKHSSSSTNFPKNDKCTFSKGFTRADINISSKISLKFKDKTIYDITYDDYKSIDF
Method in brief: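 Yeast transcription factors carrying a GST tag, as full-length proteins or DNA-binding domains, were produced by PURExpress in vitro transcription/translation. About 100-200 nM protein was applied to universal all-10-mer Agilent arrays, double-stranded by primer extension on fresh or once-stripped slides. Bound protein was detected with fluorescent anti-GST, and scans were normalised with masliner. The Universal PBM Analysis Suite gave each ungapped eight-base word, pooled with its reverse complement, an E-score, a modified Wilcoxon-Mann-Whitney statistic.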

Point of comparison: CGCCACTA, “PBM E-score” value -0.0262. Against it:
- CAGAGGGC — lower, -0.133
- CCCAGCGA — lower, -0.228
- ACACAGAT — higher, 0.00624
- GGCCAACA — higher, 0.0303
- CAAGACAG — lower, -0.0887
- AGACGGTG — lower, -0.0879
- CAGCAATG — lower, -0.204
- CTACCTTC — higher, 0.0336
- ACGAGTTC — higher, -0.011
- CAAAGACG — higher, 0.0234
- CATGATTA — higher, 0.229
- AACGCCAC — lower, -0.141
- AAAGCAGC — higher, 0.0842
- CTCATCGA — lower, -0.105
- ACTACCCG — lower, -0.0334
- ATGCCGAC — higher, 0.0527
- GCCGCCGC — lower, -0.192
- CTACTAAC — higher, 0.0315
- ACCTCTCA — lower, -0.0959
- ATGGGGAC — higher, -0.00918
- GAGACCTA — lower, -0.0389
- GCCGTTCA — lower, -0.0518
- CCATAGAG — lower, -0.271
- ACCACAAT — lower, -0.0883
- GAACGCGC — higher, 0.117
- AGAGTGGA — higher, -0.0219
- GCGACGAC — lower, -0.174
- CACCGATC — higher, 0.00747
- CAATGCCC — lower, -0.0972
- ACTCACAA — higher, 0.0548
- AGGTGAAA — higher, 0.0598
- GCGGATCC — lower, -0.195
- CCACAAGG — lower, -0.201
- AATTCATG — higher, 0.173
- CCACTAGC — lower, -0.274
- GCCCGTAA — higher, -0.0212
- AGATCTAA — lower, -0.0882
- AGAGTGCG — higher, -0.00074
- AAGGGTAT — higher, 0.0504
- GAAGTTGA — higher, 0.0192
- CGACCGAA — lower, -0.0737
- CAGAGAAG — lower, -0.0543
- GGAATAGA — higher, 0.226
- CCATAATC — higher, 0.171
- AGGCTGAC — lower, -0.245
- AAGCTAGC — lower, -0.0715
- ATGCCGTG — lower, -0.0935
- ATGAACAG — higher, 0.0319
- ACTGACAG — higher, 0.0545
- CAGGCGTC — lower, -0.228
- ATGAATAG — higher, 0.218
- CTCCTCCA — lower, -0.147
- AGAGGAAC — higher, 0.0422
- CCCTTAGG — lower, -0.185
- GTGAAAAA — higher, 0.164
- AGCGTTAG — lower, -0.151
- ACGAGAGT — lower, -0.0593
- CAATCGAC — higher, -0.0145
- AGGTTTCC — lower, -0.0706
- AGCTTAGC — lower, -0.193
- AAAGCTGA — higher, 0.0347
- GTTATTTA — higher, 0.257
- ATATACGC — lower, -0.0552
- CGAAGTCC — higher, 0.378
- TGCCCGCA — higher, -0.014
- GCCGCTGA — higher, 0.168
- AATGCTGA — lower, -0.118
- GTATAAGA — higher, 0.103
- GACCCTCA — lower, -0.194
- CCCACCTC — lower, -0.27
- GAGACAGC — lower, -0.0584
- AGCTTACG — higher, 0.107
- GCAGATAA — higher, 0.0401
- AATTATGA — higher, 0.273
- CCAAGTCG — lower, -0.124
- CGCCTAAG — lower, -0.2
- ATCGTGCG — higher, 0.108
- CGGAGACG — higher, 0.204
- CGAACTGA — lower, -0.0336
- GAACTCCA — higher, 0.15
- TCCACAGA — lower, -0.0655
- AGACACCA — lower, -0.0822
- AGAGTACA — higher, 0.0303
- CCTGTTGA — lower, -0.0514
- ACCCCGCA — higher, -0.00538
